Values of other authors as cited in paper PMC4351876 (Cancer prevention research (Philadelphia, Pa.), 2013).

Legend:
colorectal polyps = conditions: patients with familial adenomatous polyposis; cited from earlier work
[1] = test system: oral premalignant lesions; conditions: single agent celecoxib, after 12 weeks; cited from earlier work
[2] = cited from earlier work

SMILES | reduction in the number of colorectal polyps (colorectal polyps) [%] | biopsies showing improvement in the degree of dysplasia [1] | average CL/F ([2]; previous phase 2 trials, 150mg QD) [L/h] | average V/F ([2]; previous studies, cancer patients, average body weight ∼69 kg) [L] | elimination half-life (t1/2) ([2]; previously reported) [h] | t1/2 ([2]; study with cancer patients) [h]
Cc1ccc(-c2cc(C(F)(F)F)nn2-c2ccc(S(N)(=O)=O)cc2)cc1 [celecoxib] | 28 | 12 out of 18 |  |  |  | 
C#Cc1cccc(Nc2ncnc3cc(OCCOC)c(OCCOC)cc23)c1 [erlotinib] |  |  | ~3.95 | ~220 | > 24 | ~37.5
